{
  "source": "paper PMC12136788",
  "binders": {"B1": {"name": "111715549_111715669_7498_ncRNA_ENSMUSG00000033209_ENSMUST00000156290|mouse|control|control (ssRNA)", "RNA": "GGGAGUUCUACAGUCCGACGAUCGGAGGGAUGGUAUCAGUGGCUAUGUGGGUGGGUGACCACGCUGCAUCAGGGGCCCCGGGACUCUGGCUGGAGUGUGCACUGAGUUGGGGGCAAGAAGCUGCUUUAACAUUUGGAGGAAGGCAACAGAGGAUUGAGCAUCA"}, "B2": {"name": "chr12:42180722:42180723:-_ENSMUSG00000036295_ENSMUST00000043884|mus_hu|mus_mus_mus_hu_True|38_108 (ssRNA)", "RNA": "GGGAGUUCUACAGUCCGACGAUCCUGUAGGAGCAGAAUCUGUGUGUUAGCUGGCAAUCUGGCUGGGAAAGUUAAAAGACCUAAAUCAUUACAAUCCACUGUCGAUGCUUCCAUAUAAAUGGAUCUGGGUGUAAACCAAGGCCUCAACAGAGGAUUGAGCAUCA"}, "B3": {"name": "chr14:103803487:103803488:+_ENSG00000100664_ENST00000558506|hu_mus|hu_hu_hu_mus_True|78_78 (ssRNA)", "RNA": "GGGAGUUCUACAGUCCGACGAUCGAGUUUAUGAUGUGUGUCAAGCAUGCCUCGGUAGCCACAGGCUUUACAAGAAUUACCUAUUGUUUGCUUCUUUGGAUUGACAUGCAGAUCUGUUUCAGGAUUCUCACACUCAGGACAGAGCAACAGAGGAUUGAGCAUCA"}, "B4": {"name": "53458436_53458556_859_CDS_ENSG00000177613_ENST00000331173|human|control|control (ssRNA)", "RNA": "GGGAGUUCUACAGUCCGACGAUCUCCAAGUUGGGGCUGCAUUGCUCCUCCAGGAGUUAAGGAACCAGGACCAGCUCCGGGAACUGCAGCUGGUAUUGGCCCUGGAGCUGGAAUUCCACCCUGGAUAGGAGUCUGCAUCAGAGGCAACAGAGGAUUGAGCAUCA"}, "B5": {"name": "chr1:114340281:114340282:-_ENSG00000081019_ENST00000261441|hu_mus|motif|central (ssRNA)", "RNA": "GGGAGUUCUACAGUCCGACGAUCGUAUGCAUGAAGGACAAGAGCACCCCCAUUGGACUGGUGUUCUUCGUGAAUAAAGUUGCGGAAUUUAGUACCUGUUUUUAAGAAAUUUCUGCGAAUAGAAUGUUCUUGGUGCGUUGUAAACAACAGAGGAUUGAGCAUCA"}, "B6": {"name": "chr10:1042047:1042048:+_ENSG00000107937_ENST00000545048|hu_mus|FALSE|FALSE (ssRNA)", "RNA": "GGGAGUUCUACAGUCCGACGAUCGUACAGAGAAUCACCAUAUUUCAUAAGACGCACAUAAUCUUUAGCAACAUUGUCCACCAAGUUUUUGGCAAUAUUUAUUUGACCUAGAGCCAACUUGUAGUGAUCCUUGUCAUAGAGAAUCAACAGAGGAUUGAGCAUCA"}, "B7": {"name": "chr14:76904430:76904431:+_ENSMUSG00000022010_ENSMUST00000022587|mus_mus|mus_mus_mus_hu_True|78_108 (ssRNA)", "RNA": "GGGAGUUCUACAGUCCGACGAUCUGCUGGAAAAAAAACCCUCGUGGAAAAAAAGAGCAAGCUCCAGCAGCCUUGUAUAAGCUAGAUAAAAUCUUCUGGCUUUCCGCAGCCCAGGGAGAAACAGAAAACGGCAGCCCUAAUUUACAACAGAGGAUUGAGCAUCA"}, "B8": {"name": "chr12:45699863:45699864:+_ENSMUSG00000020598_ENSMUST00000020939|mus_hu|FALSE|FALSE (ssRNA)", "RNA": "GGGAGUUCUACAGUCCGACGAUCUGGAGCAUUUUUCAUGCAUCAUAUUGAACUGUAUCCUGCAGAGGAAAUAACAGGAUCUGUUGGUGAUGUUGCAUUAUUUUUUAUCAGUUCUGAGGAAAUCAAGAAUACCCAUUUUGAAUGCAACAGAGGAUUGAGCAUCA"}, "B9": {"name": "chr7:103008174:103008175:+_ENSG00000161057_ENST00000292644|hu_hu|FALSE|FALSE (ssRNA)", "RNA": "GGGAGUUCUACAGUCCGACGAUCACUCAUUGAACGAGCGUGAAUCUUAAAUAUGUGGGUCCGACCCUCUAGAUCGGGCAAGCUAAAUUCAAUUUUUCUAUCCAAUCUCCCUGGCCUCAUCAGUGCUGGAUCCAAAGUAUCAGGCAACAGAGGAUUGAGCAUCA"}, "B10": {"name": "chr3:51261291:51261292:+_ENSMUSG00000063273_ENSMUST00000029303|mus_hu|FALSE|FALSE (ssRNA)", "RNA": "GGGAGUUCUACAGUCCGACGAUCUUCAGCUUCUUUAAUCAGGUUGGCUUUUAGCAUGUAUUUUGCACAUUUGGAGUUGAUAAAUCUGUCUGCUGUGUCCAAGGCCUGGGCCUCAUCCAUCCACCUUGCAGCUUCUUUAAUAUUCAACAGAGGAUUGAGCAUCA"}, "B11": {"name": "chr7:54823571:54823572:-_ENSG00000132432_ENST00000352861|hu_mus|hu_hu_hu_mus_False|28_98 (ssRNA)", "RNA": "GGGAGUUCUACAGUCCGACGAUCUCCCAUGAUAGCAAAUCCUAUUGCUGUAGCCAUGGCAAUCUUCUGGAAUUCUUUUCUGUCGGGUUUGGUGCAUCUUUUAACCAGCCGAAUGGAGUCCUUUACAAACUGCCGGCUGGGCUCCAACAGAGGAUUGAGCAUCA"}, "B12": {"name": "chr18:47247233:47247234:+_ENSMUSG00000042705_ENSMUST00000049388|mus_mus|motif|central (ssRNA)", "RNA": "GGGAGUUCUACAGUCCGACGAUCACGGCCUGCGGCUGCUUCCCUAAUUAAUUACUGUAAUGAGUAAGGUUUCAUACUCUGCGGGGGCACCAUCAUACCUUCUGCCUACAGACCUUCCCUGAUCCCUGAAAGCAAUCUGACAGACAACAGAGGAUUGAGCAUCA"}, "B13": {"name": "chr8:112342892:112342893:+_ENSMUSG00000031731_ENSMUST00000093157|mus_mus|motif|central (ssRNA)", "RNA": "GGGAGUUCUACAGUCCGACGAUCAUUAAGAUCAUUCUUGAUACAGUUGGUCAUGAGAAGAUGCACAUCUUGUCUUUCAUCGGAUAAUAGCAUUGCUCCUAAAUAGCCAAUGCGUUUGUCUGUGAAUUUUUGUGAGGCGAUUAGCAACAGAGGAUUGAGCAUCA"}, "B14": {"name": "chr2:15737528:15737529:+_ENSG00000079785_ENST00000233084|hu_mus|FALSE|FALSE (ssRNA)", "RNA": "GGGAGUUCUACAGUCCGACGAUCUUUAAUAGUUGUUUUCCCUUUCUUUCCUUCCUGUUGGUCUUUCAGAGUUUCAUACACUAUCUGGAUAACGGGAAUACUAAAUGCACCAGUUUUUCCACUUCCUGUUUCUGCAGCCAUGAGCAACAGAGGAUUGAGCAUCA"}},
  "note": "The other results are listed elsewhere or left out.",
  "data": [
    {"target": "T1, UNK ZnF1-3 (human, UniProt Q9C0B0 31-174)", "T1 sequence": "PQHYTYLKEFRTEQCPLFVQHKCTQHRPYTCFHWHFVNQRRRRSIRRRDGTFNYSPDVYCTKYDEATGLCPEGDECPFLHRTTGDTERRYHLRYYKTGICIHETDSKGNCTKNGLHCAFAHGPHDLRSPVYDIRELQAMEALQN", "assay": "nsRBNS (natural sequence RNA bind-n-seq); RBNS binding buffer (assumed for nsRBNS): 25 mM Tris pH 7.5, 150 mM KCl, 3 mM MgCl2, 0.01% Triton X-100, 500 ug/ml BSA, 20 U/ml SUPERase-In, 4 C; UNK is unkempt and MSI1 is Musashi-1; names of the RNAs are library labels; protein concentration not given here; high values mean tight binding", "units": {"binding signal": "enrichment R"}, "values": [
      {"binder": "B1", "binding signal": 1.67},
      {"binder": "B2", "binding signal": 1.19},
      {"binder": "B3", "binding signal": 1.13},
      {"binder": "B4", "binding signal": 0.671},
      {"binder": "B5", "binding signal": 1.02},
      {"binder": "B6", "binding signal": 0.667},
      {"binder": "B7", "binding signal": 2.03},
      {"binder": "B8", "binding signal": 0.944},
      {"binder": "B9", "binding signal": 1.02},
      {"binder": "B10", "binding signal": 0.582},
      {"binder": "B11", "binding signal": 0.733},
      {"binder": "B12", "binding signal": 0.977},
      {"binder": "B13", "binding signal": 0.529},
      {"binder": "B14", "binding signal": 0.554}
    ]}
  ]
}
